# Test results reported in the supplement of paper PMC8728848.
# The list shows a part of the results.
# B1: PX14343A-bvu-539-29-539 (Bacteroides vulgatus) (protein)
# chain: DSLTESSSNTFWQTPDDALMALASCYDALQSNQLYNSDQYSLGPLYMDCISDNGGHFNWSGWMEGYDMAMGIHTPSSSIIGSYWKDCYEVISRCNVLIANIDRVDMDASQKAIYQAEAKTIRALMYINLTMTYQDVPFLTAPLTIDEAECEKTDRAAIVAHVMTDLQDAAEVLPQNASSRGHITKGAALSLLGRVALYNEKWDDAIAAYKQVQGLGYSLDPSYAKLFTQSGETSPEIIFAVRYEGPGMSEGAAFNAHWNTPLEAMNGTIDLADAYYCKDGKPTTDTKIAELNGGGGLDVSKPNPAHFENRDPRLYSTLFVPGMLWNGKGGIDTSASNPYANVYGGAAASLSTVYVYKYFDPTDTSNSWDNGQDFYVVRYAEVLLSLAEAMVQKGGYVYSDVTALVNEVRQRADVNMPTVEEVEGTSLSKDELLEVIKHERRVELAFEGLRLFDLYRWKELDKAVANIENERTMYGLAYEARKFNGERDYVWPLPTAELDTNKKLVQHDLWK
# Key:
# Assay in all cases: glycan array binding signal (z-score within array); higher = stronger binding
# Details in all cases: glycan notation: IUPAC condensed, linker removed
# [1] = biological target: Neu5Ac(a2-6)Gal(b1-4)GlcNAc(b1-3)Gal(b1-4)GlcNAc(b1-3)GalNAc
# Summary of the method: (§1)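 The binding signal is a Z-score computed within each array. Data were drawn from 3228 arrays in the Consortium for Functional Glycomics database, restricted to those with a known protein sequence. Scores were averaged over arrays of the same protein sequence at different concentrations or buffers, and over linkers, and negative values can be taken as non-binding.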
# [2] = biological target: Neu5Ac(a2-6)Gal(b1-4)GlcNAc(b1-3)Gal(b1-4)GlcNAc(b1-3)[Neu5Ac(a2-6)Gal(b1-4)GlcNAc(b1-3)Gal(b1-4)GlcNAc(b1-6)]GalNAc
# Summary of the method: as §1
# [3] = biological target: Neu5Ac(a2-6)Gal(b1-4)GlcNAc(b1-3)Gal(b1-4)GlcNAc(b1-6)[Gal(b1-3)]GalNAc
# Summary of the method: as §1
# [4] = biological target: Neu5Ac(a2-6)Gal(b1-4)GlcNAc(b1-3)Gal(b1-4)[Fuc(a1-3)]GlcNAc(b1-3)Gal(b1-4)[Fuc(a1-3)]GlcNAc
# Summary of the method: as §1
# [5] = biological target: Neu5Ac(a2-6)Gal(b1-4)GlcNAc(b1-3)GalNAc
# Summary of the method: as §1
# [6] = biological target: Neu5Ac(a2-6)Gal(b1-4)GlcNAc(b1-3)[Neu5Ac(a2-6)Gal(b1-4)GlcNAc(b1-6)]GalNAc
# Summary of the method: as §1
# [7] = biological target: Neu5Ac(a2-6)Gal(b1-4)GlcNAc(b1-6)GalNAc
# Summary of the method: as §1
# [8] = biological target: Neu5Ac(a2-6)Gal(b1-4)GlcNAc(b1-6)[Gal(b1-3)GlcNAc(b1-3)]Gal(b1-4)Glc
# Summary of the method: as §1
# [9] = biological target: Neu5Ac(a2-6)Gal(b1-4)GlcNAc(b1-6)[Gal(b1-3)]GalNAc
# Summary of the method: as §1
# [10] = biological target: Neu5Ac(a2-6)Gal(b1-4)GlcNAc6S
# Summary of the method: as §1
# [11] = biological target: Neu5Ac(a2-6)GalNAc
# Summary of the method: as §1
# [12] = biological target: Neu5Ac(a2-6)GalNAc(b1-4)GlcNAc
# Summary of the method: as §1
# [13] = biological target: Neu5Ac(a2-6)GalNAc(b1-4)GlcNAc6S
# Summary of the method: as §1
# [14] = biological target: Neu5Ac(a2-6)GlcNAc(b1-4)GlcNAc
# Summary of the method: as §1
# [15] = biological target: Neu5Ac(a2-6)GlcNAc(b1-4)GlcNAc(b1-4)GlcNAc
# Summary of the method: as §1
# [16] = biological target: Neu5Ac(a2-8)Neu5Ac
# Summary of the method: as §1
# [17] = biological target: Neu5Ac(a2-8)Neu5Ac(a2-3)Gal(b1-3)GalNAc(b1-4)[Neu5Ac(a2-3)]Gal(b1-4)Glc
# Summary of the method: as §1
# [18] = biological target: Neu5Ac(a2-8)Neu5Ac(a2-3)Gal(b1-3)GalNAc(b1-4)[Neu5Ac(a2-8)Neu5Ac(a2-3)]Gal(b1-4)Glc
# Summary of the method: as §1
# [19] = biological target: Neu5Ac(a2-8)Neu5Ac(a2-3)Gal(b1-4)Glc
# Summary of the method: as §1
# [20] = biological target: Neu5Ac(a2-8)Neu5Ac(a2-3)Gal(b1-4)GlcNAc
# Summary of the method: as §1
# [21] = biological target: Neu5Ac(a2-8)Neu5Ac(a2-3)[Gal(b1-3)GalNAc(b1-4)]Gal(b1-4)Glc
# Summary of the method: as §1
# [22] = biological target: Neu5Ac(a2-8)Neu5Ac(a2-3)[GalNAc(b1-4)]Gal(b1-4)Glc
# Summary of the method: as §1
# [23] = biological target: Neu5Ac(a2-8)Neu5Ac(a2-8)Neu5Ac
# Summary of the method: as §1
# [24] = biological target: Neu5Ac(a2-8)Neu5Ac(a2-8)Neu5Ac(a2-3)Gal(b1-4)Glc
# Summary of the method: as §1
# [25] = biological target: Neu5Ac(a2-8)Neu5Ac(a2-8)Neu5Ac(a2-3)[Gal(b1-3)GalNAc(b1-4)]Gal(b1-4)Glc
# Summary of the method: as §1
# [26] = biological target: Neu5Ac(a2-8)Neu5Ac(a2-8)Neu5Ac(a2-3)[GalNAc(b1-4)]Gal(b1-4)Glc
# Summary of the method: as §1
# [27] = biological target: Neu5Ac(a2-8)Neu5Ac(a2-8)Neu5Ac(a2-8)Neu5Ac(a2-3)[GalNAc(b1-4)]Gal(b1-4)Glc
# Summary of the method: as §1
# [28] = biological target: Neu5Ac(a2-8)Neu5Gc(a2-3)Gal(b1-4)GlcNAc
# Summary of the method: as §1
# [29] = biological target: Neu5Ac(b2-6)Gal(b1-4)GlcNAc
# Summary of the method: as §1
# [30] = biological target: Neu5Ac(b2-6)GalNAc
# Summary of the method: as §1
# [31] = biological target: Neu5Ac9Ac(a2-3)Gal(b1-3)GlcNAc
# Summary of the method: as §1
# [32] = biological target: Neu5Ac9Ac(a2-3)Gal(b1-4)GlcNAc
# Summary of the method: as §1
# [33] = biological target: Neu5Ac9Ac(a2-6)Gal(b1-4)GlcNAc
# Summary of the method: as §1
# [34] = biological target: Neu5Gc(a2-3)Gal(b1-3)GlcNAc
# Summary of the method: as §1
# [35] = biological target: Neu5Gc(a2-3)Gal(b1-3)[Fuc(a1-4)]GlcNAc
# Summary of the method: as §1
# [36] = biological target: Neu5Gc(a2-3)Gal(b1-4)Glc
# Summary of the method: as §1
# [37] = biological target: Neu5Gc(a2-3)Gal(b1-4)GlcNAc
# Summary of the method: as §1
# [38] = biological target: Neu5Gc(a2-3)Gal(b1-4)GlcNAc(b1-3)Gal(b1-4)GlcNAc(b1-2)Man(a1-3)[Neu5Gc(a2-3)Gal(b1-4)GlcNAc(b1-3)Gal(b1-4)GlcNAc(b1-2)Man(a1-6)]Man(b1-4)GlcNAc(b1-4)GlcNAc
# Summary of the method: as §1
# [39] = biological target: Neu5Gc(a2-3)Gal(b1-4)[Fuc(a1-3)]GlcNAc
# Summary of the method: as §1
# [40] = biological target: Neu5Gc(a2-6)Gal(b1-4)GlcNAc
# Summary of the method: as §1
# [41] = biological target: Neu5Gc(a2-6)GalNAc
# Summary of the method: as §1
# [42] = biological target: Neu5Gc(a2-8)Neu5Ac(a2-3)Gal(b1-4)GlcNAc
# Summary of the method: as §1
# [43] = biological target: Neu5Gc(a2-8)Neu5Gc(a2-3)Gal(b1-4)GlcNAc
# Summary of the method: as §1
# [44] = biological target: Neu5Gc(a2-8)Neu5Gc(a2-3)Gal(b1-4)GlcNAc(b1-3)Gal(b1-4)GlcNAc
# Summary of the method: as §1
# [45] = biological target: Neu5Gc(a2-8)Neu5Gc(a2-6)Gal(b1-4)GlcNAc
# Summary of the method: as §1
# [46] = biological target: Neu5Gc(b2-6)Gal(b1-4)GlcNAc
# Summary of the method: as §1
binder,measurement,setting,value
B1,glycan array binding signal (z-score),[1],-0.463
same,glycan array binding signal (z-score),[2],-0.114
same,glycan array binding signal (z-score),[3],0.108
same,glycan array binding signal (z-score),[4],0.423
same,glycan array binding signal (z-score),[5],-0.311
same,glycan array binding signal (z-score),[6],-0.471
same,glycan array binding signal (z-score),[7],-0.071
same,glycan array binding signal (z-score),[8],-0.434
same,glycan array binding signal (z-score),[9],-0.242
same,glycan array binding signal (z-score),[10],-0.298
same,glycan array binding signal (z-score),[11],-0.267
same,glycan array binding signal (z-score),[12],-0.273
same,glycan array binding signal (z-score),[13],-0.16
same,glycan array binding signal (z-score),[14],-0.249
same,glycan array binding signal (z-score),[15],-0.062
same,glycan array binding signal (z-score),[16],-0.255
same,glycan array binding signal (z-score),[17],-0.102
same,glycan array binding signal (z-score),[18],-0.41
same,glycan array binding signal (z-score),[19],-0.249
same,glycan array binding signal (z-score),[20],-0.33
same,glycan array binding signal (z-score),[21],-0.42
same,glycan array binding signal (z-score),[22],-0.116
same,glycan array binding signal (z-score),[23],-0.272
same,glycan array binding signal (z-score),[24],-0.405
same,glycan array binding signal (z-score),[25],-0.162
same,glycan array binding signal (z-score),[26],-0.47
same,glycan array binding signal (z-score),[27],-0.376
same,glycan array binding signal (z-score),[28],4.74
same,glycan array binding signal (z-score),[29],-0.266
same,glycan array binding signal (z-score),[30],-0.143
same,glycan array binding signal (z-score),[31],-0.424
same,glycan array binding signal (z-score),[32],-0.421
same,glycan array binding signal (z-score),[33],0.185
same,glycan array binding signal (z-score),[34],-0.385
same,glycan array binding signal (z-score),[35],-0.088
same,glycan array binding signal (z-score),[36],-0.301
same,glycan array binding signal (z-score),[37],-0.254
same,glycan array binding signal (z-score),[38],-0.202
same,glycan array binding signal (z-score),[39],-0.404
same,glycan array binding signal (z-score),[40],-0.155
same,glycan array binding signal (z-score),[41],-0.376
same,glycan array binding signal (z-score),[42],-0.348
same,glycan array binding signal (z-score),[43],-0.184
same,glycan array binding signal (z-score),[44],-0.392
same,glycan array binding signal (z-score),[45],0.192
same,glycan array binding signal (z-score),[46],-0.331
